Test results taken from PubChem BioAssay AID1346378 (National Center for Advancing Translational Sciences (NCATS), 2018).
Several values for one entry are separate records, joined by “and”; a condition that tells them apart may be missing. Identical values can stand only once. Screen size: about 420,000 compounds; about 540 (0.13%) were called active. This list was built around the results that the source calls inconclusive (neither active nor inactive); the mix of calls is not that of the screen. Rule as the data show it: active = activity change below about -50%; inconclusive = mostly about -30% to -49%; inactive = weaker than that.

Each molecule was assayed against Phosphatidylinositol 4-kinase type 2-alpha (Homo sapiens) (UniProt Q9BTU6) (assay: qHTS for small molecular inhibitors of PI4K2A). Conditions: purified PI4K2A, ADP-Glo luminescence, 1 h; at 76.9 µM, stronger effect = lower value.
UniProt Q9BTU6, sequence (Q9BTU6 whole entry, looked up): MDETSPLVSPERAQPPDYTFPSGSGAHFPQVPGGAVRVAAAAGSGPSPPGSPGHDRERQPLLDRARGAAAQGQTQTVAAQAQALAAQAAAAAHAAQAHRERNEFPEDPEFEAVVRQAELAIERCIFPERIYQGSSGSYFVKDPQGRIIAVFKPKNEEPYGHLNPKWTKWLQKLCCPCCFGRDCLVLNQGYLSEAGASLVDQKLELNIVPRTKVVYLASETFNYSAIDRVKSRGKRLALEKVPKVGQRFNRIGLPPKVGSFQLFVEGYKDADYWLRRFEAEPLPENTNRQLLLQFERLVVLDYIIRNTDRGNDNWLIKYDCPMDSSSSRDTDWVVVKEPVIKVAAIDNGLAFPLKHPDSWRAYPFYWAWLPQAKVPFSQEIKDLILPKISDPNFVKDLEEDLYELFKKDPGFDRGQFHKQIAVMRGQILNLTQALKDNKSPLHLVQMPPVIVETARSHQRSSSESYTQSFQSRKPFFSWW
Outline: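 In this quantitative HTS, ADP production by PI4K2A was quantified luminescently after 1 h at ambient temperature; 100 microM adenosine served as plate-quality control.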
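Also: -100% = wells without enzyme as full effect.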

Activity change, negative = inhibition, inactive:
CCCCN(CC)CCCNC(=O)c1cc2c(-c3ccc(OC)c(OC)c3)nn(C)c2s1 0.0412% and 0.629%
O=C(Nc1ccc(F)cc1)c1ccc(Cn2nc(N3CCN(c4ccccc4)CC3)ccc2=O)o1 -5.71%
O=C(CN1CCC(n2nnc3cc(C(F)(F)F)ccc32)CC1)NNC(=O)c1ccco1 -0.409%
O=C(Nc1ccc(Nc2ccccc2)cc1)c1ccc(Cl)c([N+](=O)[O-])c1 0.813%
Cn1ccc(NS(=O)(=O)c2cc(Br)ccc2Br)n1 -4.17%
Cc1ccc(Cc2cnc(N3C(=N)SC(c4ccccc4)C3=O)s2)cc1 (stereo unspecified) 5.03%
Cn1c(=O)oc2cc(NC(=O)CCl)ccc21 -7.99%
CCOC(=O)N/N=C\c1ccc([N+](=O)[O-])o1 0.799%
Cc1ccc(NC(=O)/C(=C\c2ccc([N+](=O)[O-])cc2)NC(=O)c2ccccc2)cc1 5.92%
COc1ccc2nc(C)cc(SCC(=O)NNC(=O)COc3cccc4ccccc34)c2c1 4.48%
Cc1c(C(=O)OCCOc2ccccc2)[nH]c2c1C(=O)CC(c1ccccc1Cl)C2 (stereo unspecified) -2.78%
CCCCCn1c(Sc2ccccc2)nc2c1c(=O)[nH]c(=O)n2C -3.98%
COc1cc(/C=C(\CC(=O)O)c2nc3ccccc3s2)ccc1OCC(=O)Nc1ccccc1F -3.54%
Cn1cccc1Cc1nnc(SCC(=O)NCc2ccccc2)n1-c1ccc(F)cc1 -0.633%
Cc1ccc(OCCSCc2nnc(NC(=O)Nc3cccc(Cl)c3)s2)cc1 3.69%
Cc1cc(C)c(C(=O)/C=C/c2ccc(C(C)C)cc2)c(=O)[nH]1 11%
COc1ccc(NC(=O)N2CCc3c(sc4c3CCCC4)C2c2ccc(F)cc2)cc1 (stereo unspecified) -3.74%
Cc1ccc(S(=O)(=O)N2CCN(C(=O)c3ccc(COc4ccccc4)o3)CC2)cc1 -1.37%
CC(C)CNC(=S)NC1CC2CCC(C1)N2Cc1ccccc1 (stereo unspecified) -1.86%

Activity change, negative = inhibition, inconclusive:
N.N.N.N.N.N.N.N.N.N.N.N.N.N.O.O.[Ru+4].[Ru+5].[Ru+5] -42.7%
Cc1ccc(C(c2sc3ncnn3c2O)N2CCCCC2)cc1 (stereo unspecified) -35.4%
CCOC1OC2C(CO)OC(n3cnc4c(N)ncnc43)C2O1 (stereo unspecified) -48.2%
CCC(=O)NC1=C(Cl)C(=O)C(NC(=O)CC)=C(Cl)C1=O -44.8%
CC(C)(C)n1ncc2c(=O)n(CC(=O)Nc3ccc(Cl)cc3)cnc21 -46.6%
COc1cc(/C=C2\C(=O)N(c3ccccc3)N=C2C)ccc1Oc1ccc([N+](=O)[O-])cc1[N+](=O)[O-] -34.6%
Cc1ccc(C(C2=C(O)CC(C)(C)CC2=O)C2C(=O)CC(C)(C)CC2=O)o1 (stereo unspecified) -32.5%
COc1ccc(C(=O)c2nccc3cc(OC)c(OC)cc23)cc1OC -33.9%
CC(C(=O)O)c1ccc(C(=O)c2ccccc2)s1 (stereo unspecified) -38.5%
Cc1ccc(-c2nc3n(n2)Cc2ccccc2-3)cc1 -41.9%
C=CCNC(=O)c1ccc2c3n(nc2c1)-c1ccccc1CO3 -41.3%
O=C(COC(=O)c1c2c(nc3ccccc13)/C(=C/c1ccco1)CC2)NC1CCCC1 -46.2%
S=C(Nc1ccc2nsnc2c1)N1CCCCC1 -41.1%
COc1ccc(N/C=C/C(=O)c2ccccc2)cc1 -34.4%
COc1ccc2c(c1)Cc1sc(NC(=O)c3ccco3)nc1-2 -36%
CCOc1cc(/C=C2/C(=O)NN(c3cccc(Cl)c3)C2=O)ccc1O -31.5%
Cc1ccc(S(=O)(=O)N2CCCCC2)cc1NC(=O)Cn1ncc(Cl)c(Cl)c1=O -40.1%
Nc1nc(Nc2ccc(Cl)cc2)nc2ccccc12 -35.7%
Fc1cccc(F)c1/C=C/c1ccc2ccccc2n1 -34.1%
S=C(NCCc1ccccc1)N1CCN(Cc2ccc(Cl)c(Cl)c2)CC1 -30.7%
Cc1ccc(C2C(C#N)=C(N)Oc3n[nH]c(-c4ccccc4)c32)o1 (stereo unspecified) -43.3%
c1ccc2[nH]c(-c3ccc4c(c3)OCO4)nc2c1 -33.1%
CC(Oc1ccccc1Cl)C(=O)Nc1ccc(S(=O)(=O)N2CCN(C)CC2)cc1 (stereo unspecified) -45.4%
CCOC(=O)c1c(NC(=O)c2ccco2)n(C2CCCCC2)c2nc3ccccc3nc12 -34.8%
Cc1ccc(C(=O)NC2(O)C(=O)c3ccccc3C2=O)cc1C -38.1%
N#Cc1sc2nc(-c3ccccc3)cc(-c3ccco3)c2c1N -43.4%
O=C(O)C1Nc2c(O)cc(Cl)c([N+](=O)[O-])c2C2C=CCC12 (stereo unspecified) -35.2%
COc1ccc2c(c1)c(=Cc1ccc(N(C)C)cc1)c1cc(-c3ccccc3)[n+](C)n12 -31.1%
CC1CCCN(C2=C(NS(=O)(=O)c3ccc(Cl)cc3)C(=O)c3ccccc3C2=O)C1 (stereo unspecified) -31.3%
CCCCC1(C)OC(=O)C(=Cc2ccc(-c3ccc(Cl)c(C(=O)O)c3)o2)C(=O)O1 (stereo unspecified) -30.6%
CC12C(=O)N(c3ccccn3)C(=O)C1C1C=CC2C1 (stereo unspecified) -41.8%
O=C(Nc1ccc(OC(=O)c2ccco2)cc1)c1ccco1 -40.2%
c1ccc(-c2noc(-c3ccc4c(c3)OCO4)n2)nc1 -33.4%
COC(=O)CCC(=O)OC1(C)C(=O)C2=COC(c3ccc(OC)cc3)=CC2=C(Br)C1=O (stereo unspecified) -36.7%
CC(=O)Nc1ccc(NC(=O)c2nc(S(=O)(=O)Cc3cccc(C)c3)ncc2Cl)cc1 -31.3%
COc1cccc(-c2ccc3c(N)c(C(=O)NC4CC4)sc3n2)c1 -35.5%
COc1cccc(NC(=O)Cn2nnc(-c3nc(-c4ccccc4)no3)c2N)c1 -37.1%
Cc1cc2nc3ccc(N(C)C)cc3nc2cc1N -32.4%
CC(=O)Nc1ccc(C=C(C#N)c2ccc(C)cc2)cc1 -49.2%
O=C(CSc1ccc(-c2ccccc2)nn1)N1CCOCC1 -35.1%
Oc1ccc(NCc2ccccc2OCc2ccccc2)cc1 -35.5% and -35%
O=C1C(NS(=O)(=O)c2cccs2)=C(N2CCOCC2)C(=O)c2ccccc21 -36.1%
CN1CC(=O)N/C1=N\C(=O)Nc1ccc(O)cc1 -32.6%
O=C(Nc1c(-c2ccc3c(c2)OCO3)[nH][nH]c1=O)c1cccc(C(F)(F)F)c1 -48.9%
COc1ccc(-c2nnc(SCC(=O)NN=C/C=C\c3ccco3)n2-c2ccc(OC)cc2)cc1 -42%
O=c1[nH]cc(N=Cc2cc(Cl)cc(Cl)c2O)c(=O)[nH]1 -33.9%
CCOC(=O)c1ccc(Nc2cc3ccccc3c(=O)[nH]2)cc1 -32%
O=C(/C=C/Nc1ccc(Oc2ccccc2)cc1)c1ccco1 -40%
CC(=O)NC(=Cc1ccccc1)C(=O)N1CCCC1C(=O)O (stereo unspecified) -34.7%

Activity change, negative = inhibition, active:
O=S(=O)(Nc1cc(Sc2ncn[nH]2)c(O)c2ccccc12)c1ccccc1 -63.6%
CCOc1ccc(NC(=O)c2ccc(NC(=O)COC(=O)c3ccc(NC(=O)CC#N)cc3)cc2)cc1 -84.7%
COc1cccc(C(c2c(C)[nH]n(-c3ccccc3)c2=O)c2c(C)[nH]n(-c3ccccc3)c2=O)c1O -51%
CC1=NN(c2ccc(N)cc2)C(=O)C1 -66%
Cc1ccc(NC(=S)c2nc3ccccc3s2)cc1 -82.3%
Cc1ccc(C(=O)O/N=C(\N)c2ccccn2)c(Cl)c1 -70.1%
Cc1ccc(C)c(N2CCN(C(=O)C3CCN(S(=O)(=O)c4cccc5nsnc45)CC3)CC2)c1 -61.2%
CCOc1ccc(C(=O)Nc2cc(C)ccn2)cc1 -71.6%
CC(=NCc1cccnc1)C1=C(O)c2ccccc2C1=O -53.6%
C[n+]1cccc2c(Br)ccc([O-])c21 -61.1%
Cc1[nH][nH]c(=O)c1C(c1ccc(-c2ccc(C(=O)O)cc2)o1)c1c(C)[nH][nH]c1=O -54.5%
Oc1ccc(/C=C/c2ccc3ccccc3n2)cc1 -74.8%
CN1/C(=C/C=C/c2n(C)c3cc([N+](=O)[O-])c([N+](=O)[O-])cc3[n+]2C)C(C)(C)c2ccccc21 -74.5%
CCN(CC)c1ccc(C(=C2C=CC(=[N+](CC)CC)C=C2)c2ccc(N(CC)CC)cc2)cc1 -70.7%
CN(C)c1ccc(C(=C2C=CC(=[N+](C)C)C=C2)c2ccc(N(C)C)cc2)cc1 -59%
COc1ccc(-c2ccc(NC(=O)c3ccco3)cc2)nn1 -53.2%
N/C(=N/OC(=O)c1ccccc1Cl)c1nonc1N -53.5%

Activity change, negative = inhibition, -34.1% (inconclusive) and -51% (active):
CCN1/C(=C/C(C)=C/c2sc3ccccc3[n+]2CC)Sc2ccccc21
